Assay results from PubChem BioAssay AID1671194 (National Center for Advancing Translational Sciences (NCATS), 2021).
Hit rate of the full screen: of about 140,000 compounds, about 240 (0.17%) were called active. This list was built around the results that the source calls inconclusive (neither active nor inactive); the mix of calls is not that of the screen. Calls follow the shape of the dose curve; as a rule, active = well fitted inhibition curve with a large enough effect; inconclusive = small, poorly fitted or top-dose-only effect; inactive = no such curve, though single readings can be large or run the other way. Where the call is inconclusive, the potency comes from a doubtful curve fit.
Potency is read from the fitted curve at half-maximal effect; tags tell the direction and shape of the fitted curve.

Test: Primary qHTS assay for inhibitors of alpha-synuclein gene (SNCA) expression; also: nearly all actives have a fitted effect of over 45% in size;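 as to activity change, negative = inhibition: plate controls were DMSO cells for no effect and cell-free wells for full effect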
Conditions: HEK-293 SNCA-luciferase knock-in, luminescence, 24 h; activity change, negative = inhibition: at 57.2 µM (top of the series) unless noted
For `COCCN1CCCC2(CCN(C(=O)CCn3ccc(C)n3)C2)C1=O` (configuration not stated), the Potency was inconclusive: 8.91 µM [inhibitor, single point]. With `CCOc1ccccc1NC(=O)N1CCC(c2cc(-c3cccc(OC)c3)n[nH]2)CC1` the “activity change, negative = inhibition” value was inactive: -26.8%. With `O=C1CCN(C(=O)C2CCN(C(=O)C3CC3)CC2)CCCCCCN1` the “activity change, negative = inhibition” value was inactive: 36.5%. With `Cc1ccc(Nc2ccc(N3CCN(C(=O)c4ccc([N+](=O)[O-])cc4Cl)CC3)nn2)cc1` the Potency was inconclusive: 39.8 µM [inhibitor, single point]. With `COc1ccc(CNC(=O)c2cc3c(-c4ccccc4F)nn(C)c3s2)c(OC)c1` the Potency was inconclusive: 1 µM [inhibitor, full curve]. In the case of `COc1ncc2nc(-c3cc(F)cc(F)c3)c(=O)n(C3CC3)c2n1`, the Potency was inconclusive: 14.1 µM [inhibitor, partial curve, poor fit]. In the case of `c1cnc(N2CCOCC2)c(CNCc2ccc(C3CCCCO3)o2)c1` (configuration not stated), the Potency was inconclusive: 2 µM [inhibitor, partial curve, poor fit]. For `COc1ccc(CNC(=O)CN(c2ccc(C)cc2)S(=O)(=O)c2c(C)n[nH]c2C)cc1`, the Potency was inconclusive: 8.91 µM [inhibitor, partial curve]. With `COc1cc(C)c(Cl)cc1S(=O)(=O)NCCc1c(C)[nH]c2ccccc12` the Potency was inconclusive: 39.8 µM [inhibitor, single point]. In the case of `COc1cccc(CNC(=O)CN2C(=O)N(c3cc(C)ccc3C)S(=O)(=O)c3ccccc32)c1OC`, the Potency was inconclusive: 17.8 µM [inhibitor, single point]. In the case of `O=C(NCCN1CCOCC1)c1cc(-c2ccc(F)cc2)c2nncn2n1`, the “activity change, negative = inhibition” value was inactive: -21.3%. In the case of `COc1cccc(NC(=O)Cn2cc(C(=O)C3CCCCC3)c3ccccc32)c1`, the Potency was inconclusive: 20 µM [inhibitor, partial curve, poor fit]. In the case of `O=C(c1cccc(F)c1)N1CCN(C(=O)c2nnn3c2COC(c2ccc(Cl)cc2)C3)CC1` (configuration not stated), the Potency was inconclusive: 5.62 µM [inhibitor, full curve, poor fit]. For `COc1ccc(-c2cc(CC3(NCc4ccccc4)COC3)no2)cc1`, the Potency was inconclusive: 15.8 µM [inhibitor, single point]. With `Cc1ccc(C(=O)N2CCC3(CC2)CC(=O)Nc2ccccc2O3)cc1` the Potency was inconclusive: 3.16 µM [inhibitor, partial curve, poor fit]. For `Cc1ccc(CNC(=O)CCCn2c(=O)c3ccccc3n(CC(=O)C(C)(C)C)c2=O)cc1`, the Potency was inconclusive: 1.26 µM [inhibitor, full curve]. With `CCc1nc(-c2c3n(c(=O)n(CC(=O)Nc4ccccc4CC)c2=O)CCCCC3)no1` the Potency was inconclusive: 7.94 µM [inhibitor, partial curve]. For `CC1(COc2ccc3[nH]ccc3c2)COc2ccc(C(=O)N3CC(O)C3)cc2N1` (configuration not stated), the Potency was inconclusive: 28.2 µM [inhibitor, single point]. For `CCN(CC)c1ccc(C(=O)NCc2ccc3c(c2)CCN3C(=O)c2ccccc2)cc1`, the Potency was inconclusive: 0.562 µM [inhibitor, full curve, poor fit]. In the case of `COCCCn1c(C)cnc1CC1CCN(C(=O)CC2CCCCC2)CC1`, the “activity change, negative = inhibition” value was inactive: -4.37%. In the case of `O=C(C[C@@H]1CCNC[C@@H]1Cc1cc(-c2ccccc2)on1)NCc1ccc(F)cc1`, the Potency was inconclusive: 12.6 µM [inhibitor, single point]. For `O=c1[nH]c(C2CCCN(CC3CCCCC3)C2)nn1-c1ccc(Cl)cc1` (configuration not stated), the Potency was inconclusive: 14.1 µM [inhibitor, partial curve]. With `O=C(Nc1ccc(-c2cc(C(F)(F)F)nn2-c2ccccc2)cc1)c1cccc(F)c1` the Potency was inconclusive: 17.8 µM [inhibitor, single point]. With `CCC(C(=O)N1CCN(Cc2ccc(C)c(C)c2)C(=O)C1)n1cccn1` (configuration not stated) the “activity change, negative = inhibition” value was inactive: 5.14%. For `C[C@@]12CO[C@@H](Cc3ccccc3)O[C@@H]1CC[C@]1(C)C2CC[C@@H](O)[C@H]1CC(=O)NCc1cc(F)cc(F)c1` (some centres not stated), the Potency was inconclusive: 39.8 µM [inhibitor, single point]. With `CNCc1ccccc1OC` the Potency was inconclusive: 70.8 µM [inhibitor, single point]. In the case of `CCOc1ccccc1NC(=O)Cn1c(=O)c(-c2noc(CC)n2)c2n(c1=O)CCCC2`, the “activity change, negative = inhibition” value was inactive: 10.9%. For `COc1ccccc1NC(=O)c1cc(S(=O)(=O)N(C)C2CCCCC2)ccc1F`, the Potency was inconclusive: 8.91 µM [inhibitor, full curve]. With `COc1cccc(N2C(=O)NC(=NC3CCCCC3)C23CCCN(CC2CC2)C3)c1` (configuration not stated) the Potency was inconclusive: 3.16 µM [inhibitor, full curve]. With `CCc1noc(-c2cccn3c(CNC(=O)Cc4c[nH]c5ccccc45)nnc23)n1` the “activity change, negative = inhibition” value was inactive: -1.31%. With `Cc1nc(-c2ccccc2)n(Cc2ccc(F)cc2F)c(=O)c1CCO` the “activity change, negative = inhibition” value was inactive: -4.5%. For `NCCCN1C(=O)CC[C@H]2CN(C(=O)c3cnn4ccccc34)CC[C@H]21`, the Potency was inconclusive: 39.8 µM [inhibitor, single point]. For `CC(C)C[C@@H]1N[C@H](C(=O)NCc2ccc(F)cc2)Cc2c[nH]c3cccc1c23`, the Potency was inconclusive: 56.2 µM [inhibitor, single point]. In the case of `Cc1ccc2oc(=O)c3cc(C(=O)N4CCN(c5ccccc5)CC4)sc3c2c1`, the Potency was inconclusive: 1.12 µM [inhibitor, partial curve, poor fit]. For `O=C(CCC1CCCN(S(=O)(=O)c2cccc(F)c2)C1)NC1CCCCC1` (configuration not stated), the “activity change, negative = inhibition” value was inactive: -16.6%. For `CN(C)S(=O)(=O)c1ccc2c(c1)N(CC(=O)NCc1ccccc1)C(=O)C1CCCCN21` (configuration not stated), the Potency was inconclusive: 2.82 µM [inhibitor, single point]. In the case of `N#Cc1cccc(NC(=O)O[C@@H]2CO[C@H]3[C@@H]2OC[C@@H]3Nc2nccc(-c3cccc(F)c3)n2)c1`, the Potency was inconclusive: 39.8 µM [inhibitor, single point]. With `CC1(C)CC(NC(=O)Cn2nc3c(cc2=O)CCCCC3)CCO1` (configuration not stated) the “activity change, negative = inhibition” value was inactive: 14.3%. In the case of `COc1ncc(-c2cnc3[nH]cc(CC(=O)N4CCOCC4)c3c2)cn1`, the Potency was inconclusive: 56.2 µM [inhibitor, single point]. In the case of `COc1ccc(C(=O)N2CCC3(CC2)OC(=O)N(Cc2ccccc2F)C3(C)c2ccccc2)cn1` (configuration not stated), the “activity change, negative = inhibition” value was inactive: -2.61%. In the case of `O=C(CSc1ncc(CO)n1Cc1ccccc1)Nc1nc2ccccc2s1`, the Potency was inconclusive: 5.62 µM [inhibitor, partial curve, poor fit]. For `CCn1cc(S(=O)(=O)N2C[C@@H](Oc3cccnc3)C[C@H]2C(=O)NCCOC)cn1`, the “activity change, negative = inhibition” value was inactive: 0.966%. With `COc1cccc(Nc2ncc3ncc(=O)n(C[C@H]4CCCO4)c3n2)c1` the Potency was inconclusive: 17.8 µM [inhibitor, partial curve, poor fit]. For `CC1=C[C@@H](CNC(=O)C2CC2)[C@H](C(C)C)C[C@H]1Cc1nnc(-c2cncn2C)o1`, the “activity change, negative = inhibition” value was inactive: -6.11% [at 87.6 µM]. In the case of `COc1ccc(OC)c(NC(=O)CCn2cnnn2)c1`, the “activity change, negative = inhibition” value was inactive: 0.47%. For `Cn1nc(-c2nncn2CC2CC2)c2c1CCN(C(=O)C1CC1)C2`, the “activity change, negative = inhibition” value was inactive: 0.721%. With `O=C(NCCc1nc(Cc2ccccc2)no1)[C@H]1CCC[C@H](O)C1` the “activity change, negative = inhibition” value was inactive: 0.703%. For `O=C1COCC2(CN1Cc1ccccc1)CN(c1ccccc1)C2`, the “activity change, negative = inhibition” value was inactive: -12.7% [at 87.6 µM]. For `COc1cc2nc(SCc3ccc(Cl)cc3)n3nc(CCn4nc(C)cc4C)nc3c2cc1OC`, the Potency was inconclusive: 6.31 µM [inhibitor, full curve]. With `CN(Cc1cc(C[C@@H]2C[C@H](NC(=O)C(C)(C)C)C2(C)C)no1)c1ccccc1` the “activity change, negative = inhibition” value was inactive: -15.5% [at 87.6 µM]. For `OCC1CN(Cc2ccccc2)CC12CCN(C1CCC1)CC2` (configuration not stated), the “activity change, negative = inhibition” value was inactive: 8.55%. In the case of `Cc1ccc(S(=O)(=O)N2CCC(n3cnnc3C)CC2)cc1F`, the “activity change, negative = inhibition” value was inactive: 4.03%. For `O=C(c1cccc(F)c1)N1CC(Oc2ccc(-c3noc(C4CCOCC4)n3)cc2)C1`, the Potency was inconclusive: 10 µM [inhibitor, partial curve, poor fit]. In the case of `CC(=O)NCc1nnc2n1C(C(=O)NCCc1ccccc1F)CC2` (configuration not stated), the “activity change, negative = inhibition” value was inactive: 14.1%. In the case of `CC1Oc2ccc(NC(=O)Cc3cccs3)cc2CN(Cc2ccc(Cl)cc2)C1=O` (configuration not stated), the Potency was inconclusive: 15.8 µM [inhibitor, partial curve, poor fit]. In the case of `O=C(O)CCC(=O)N[C@H]1CCN2C(=O)c3cc(-c4ccccc4)ccc3NC(=O)[C@H]12`, the “activity change, negative = inhibition” value was inactive: 4.15% [at 87.6 µM]. In the case of `O=C(Cn1nc2n(c1=O)CCCC2)Nc1cccc(Br)c1`, the Potency was inconclusive: 1.12 µM [inhibitor, full curve, poor fit]. With `COc1ccc(-c2cn3cc(C(=O)NCC4CCCCC4)nc3s2)cc1` the “activity change, negative = inhibition” value was inactive: -11.7%. In the case of `CCc1ccc(CN2CCCC23Cc2ccccc2CNC3=O)cc1` (configuration not stated), the Potency was inconclusive: 8.91 µM [inhibitor, single point]. For `CCC(=O)NC[C@H]1Cn2cc(-c3ccc(OC)cc3)nc2CO1`, the “activity change, negative = inhibition” value was inactive: 76.3% [at 87.6 µM]. With `COc1ccc(CCNC(=O)CCCn2c(=O)c3ccccc3n(CC(=O)Nc3ccccc3C)c2=O)cc1OC` the Potency was inconclusive: 22.4 µM [inhibitor, partial curve, poor fit]. In the case of `Cc1csc(NC(=O)c2cnc3c(c2)N(C(=O)Cc2ccc(C(C)C)cc2)CCC3)n1`, the Potency was inconclusive: 56.2 µM [inhibitor, single point]. For `O=C1Nc2ccc(-c3ccc4c(c3)OCO4)cc2C(=O)N2CC[C@H](NC(=O)N3CCOCC3)[C@@H]12`, the “activity change, negative = inhibition” value was inactive: 10.1%. For `Cc1nn(C(C)C(=O)NCCc2ccccc2)c(=O)c2c1sc1ccccc12` (configuration not stated), the Potency was inconclusive: 7.08 µM [inhibitor, single point]. In the case of `CN(C)C(=O)C1CCCN1c1nccc(Nc2ccccc2F)n1` (configuration not stated), the “activity change, negative = inhibition” value was inactive: 26.8% [at 87.6 µM]. For `CC1(COc2cccnc2)COc2ccc(C(=O)NCc3ccc(F)cc3)cc2N1` (configuration not stated), the Potency was inconclusive: 8.91 µM [inhibitor, partial curve, poor fit]. With `CCC(C(=O)NC1CCCCC1)n1c(SCc2ccccc2F)nc2ccncc21` (configuration not stated) the Potency was inconclusive: 22.4 µM [inhibitor, single point].
